Data published in PubChem BioAssay AID488969 (Vanderbilt High Throughput Screening Facility, 2010).
Over roughly 110,000 compounds, “z-score” has its median near -0.1; the highest 2% begin near 2. The list shows a part of the results. Active and inactive are the calls of the source.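 How the source made its calls: active means z-score in the third read window above 3 or below -3; inactive means the rest.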 Residues, ends and D or L forms follow the SMILES beside them. *: point of attachment. OBn = c1ccc(CO*)cc1

target: Metabotropic glutamate receptor 8 (Rattus norvegicus) (UniProt P70579); assay: rat mGluR8 modulators via GIRK flux, primary screen, cell-based, thallium flux, HTS (AID 488969); settings: HEK293 rat mGluR8, GIRK (G protein-gated inwardly rectifying potassium channel) thallium flux, FluoZin2; at 10 µM; stronger effect = higher value; submaximal glutamate (EC20) added with thallium
Sequence of UniProt P70579 (P70579 whole entry, looked up): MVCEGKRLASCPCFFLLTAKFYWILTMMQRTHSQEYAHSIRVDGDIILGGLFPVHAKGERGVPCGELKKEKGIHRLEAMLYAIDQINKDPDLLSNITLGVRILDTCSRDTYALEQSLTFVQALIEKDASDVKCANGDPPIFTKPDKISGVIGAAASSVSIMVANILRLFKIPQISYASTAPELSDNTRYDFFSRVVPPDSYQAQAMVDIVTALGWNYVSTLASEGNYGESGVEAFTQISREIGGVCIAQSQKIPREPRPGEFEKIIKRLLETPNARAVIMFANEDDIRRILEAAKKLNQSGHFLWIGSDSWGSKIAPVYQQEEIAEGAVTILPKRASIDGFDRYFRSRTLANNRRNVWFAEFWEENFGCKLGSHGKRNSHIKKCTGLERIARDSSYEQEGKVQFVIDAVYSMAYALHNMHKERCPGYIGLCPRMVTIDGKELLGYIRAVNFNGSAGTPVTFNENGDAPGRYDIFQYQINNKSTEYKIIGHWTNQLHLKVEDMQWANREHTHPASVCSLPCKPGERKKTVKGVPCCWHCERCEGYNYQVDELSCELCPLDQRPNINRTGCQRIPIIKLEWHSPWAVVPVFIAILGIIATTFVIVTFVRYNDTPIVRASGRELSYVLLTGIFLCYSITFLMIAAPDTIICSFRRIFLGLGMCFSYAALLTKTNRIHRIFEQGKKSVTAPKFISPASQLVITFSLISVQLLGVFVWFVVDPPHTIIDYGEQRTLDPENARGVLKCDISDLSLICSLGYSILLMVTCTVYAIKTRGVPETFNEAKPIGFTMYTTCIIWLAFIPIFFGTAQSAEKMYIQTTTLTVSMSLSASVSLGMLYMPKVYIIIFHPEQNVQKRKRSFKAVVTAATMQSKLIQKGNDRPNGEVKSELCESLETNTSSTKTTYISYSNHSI

Structure (SMILES)	z-score
CCc1ccc(-c2ccc(C(=O)C(F)(F)F)[nH]2)cc1	-0.0177
Cc1ccc(CN(C(=O)CNC(=O)c2cccs2)C(C(=O)NCC2CCCO2)c2ccccc2)cc1 (configuration not stated)	-0.275
CCOC(=O)C1CCCN(C(=O)c2ccc3c(=O)n(CCOC)c(=S)[nH]c3c2)C1 (configuration not stated)	0.771
CCn1c(CNC(=O)COc2ccc(C(C)C)cc2)nnc1SCC(=O)Nc1ccccc1F	-0.291
CCC1=[N+](CC(=O)c2ccc(C)cc2)CCn2c(C)ccc21	-0.247
COc1ccc(CC(=O)c2c(O)cc(O)cc2O)cc1OC	-0.144
O=C(CN1CCC(NC(=O)c2ccco2)CC1)Nc1cccc2ccccc12	0.182
CC(C1CC2CCC1C2)n1c(COc2ccccc2F)nnc1SCC(N)=O (configuration not stated)	0.186
O=C(Nc1nnc(C2CC2)s1)c1cc2c(s1)CCCCCC2	-0.103
CCOc1ccc(NC(=O)c2cn(-c3ccc(OCC)cc3)c(=O)c3cc(OC)c(OC)cc23)cc1	-0.251
CCN(CC)S(=O)(=O)c1ccc(N2CCCC2)c(NS(=O)(=O)c2ccc(OC)cc2)c1	-0.043
CN(c1ccccc1)S(=O)(=O)c1ccc(NC(=O)c2ccc(-c3ccccc3)cc2)cc1	-0.236
Cc1c(Cl)c([N+](=O)[O-])nn1CCCC(=O)Nc1cc(Cl)ccc1Cl	-0.213
Nc1cc(=O)[nH]c(SCC(=O)Nc2ccc(Cl)c(Cl)c2)n1	-0.192
Cc1occc1C(=O)n1cnc2ccccc21	-0.288
O=c1c2sc(-c3ccccc3)cc2nc2n1CCC2	0.165
N#Cc1ccc(C2=NC(C(F)(F)F)(C(F)(F)F)c3c(n(Cc4ccco4)c(=O)[nH]c3=O)N2)cc1	-0.765
CCc1ccc2c(c1)cc(CN(C(=S)Nc1ccccc1Cl)C1CC1)c1nnnn12	-0.276
CSc1ccccc1NC(=O)COc1ccccc1Cl	-1.54
CCOC(=O)c1cccc(NC(=O)COC)c1	-0.441
O=C(COC(=O)CCS(=O)(=O)c1ccc(Cl)cc1)NC1CCCCC1	-0.199
CCN(CC)C(=O)C1CCN(S(=O)(=O)c2ccc(C3CNC(=O)C3)cc2)CC1 (configuration not stated)	-1.74

Structure (SMILES)	z-score
COc1ccc(C2C3=C(Nc4ncnn42)c2ccccc2CCC3)cc1 (configuration not stated)	-1.58
O=C(Nc1ccccc1)Nc1ccccn1	0.139
Cc1ccc(S(=O)(=O)CNC(=S)c2cccc(C)c2)cc1	-0.13
Cc1ccc(NC(=O)/C=C/c2ccc([N+](=O)[O-])s2)cc1	-0.137
COc1ccc(-n2c(SCC3CNC(=O)O3)nnc2-c2ccc(Cl)cc2)cc1 (configuration not stated)	-0.724
CCOC(=O)C1=C(C)NC(C)=C(C(=O)OCC)C1C(=O)OC1CCOC1=O (configuration not stated)	0.276
Cc1ccc2[nH]c(=O)c(N3CCOCC3)c(-c3ccccc3)c2c1	-0.165
Cc1onc(-c2ccccc2)c1C(=O)NCc1ccc2c(c1)OCO2	0.0427
CCN(CC)S(=O)(=O)c1ccc(OC)c(NC(=O)C(C)Oc2ccc3c(C)cc(=O)oc3c2)c1 (configuration not stated)	-1.22
COC(=O)c1ccc(OCC(=O)c2ccccc2OC)cc1	-0.264
CCOc1ccc(C(=O)NCC(C)C)cc1	-0.567
COCCN1C(=O)c2oc3c(C)cc(C)cc3c(=O)c2C1c1cccc(O)c1 (configuration not stated)	-0.573
CCOCCCn1c(=NC(C)=O)c(C(=O)OCC)cc2c(=O)n3ccccc3nc21	-0.647
c1ccc(-n2ncc3c(NCc4cccnc4)ncnc32)cc1	0.127
N#Cc1c2n(c3c(=O)n(Cc4ccccc4)cnc13)CCCC2	-0.222
CC(C)CNC(=S)NC1CC2CCC(C1)N2Cc1ccccc1 (configuration not stated)	-0.0729
CCOC(=O)C1=C(C)N(Cc2ccccc2)C(=O)NC1c1ccc(OC)cc1 (configuration not stated)	0.283
O=C(C1CCC1)N1CCc2cc(S(=O)(=O)NCCN3CCN(c4ccccc4F)CC3)ccc21	-0.259
CN(CC(=O)O/N=C(\N)c1ccc([N+](=O)[O-])cc1)S(=O)(=O)c1ccc2ccccc2c1	0.397
Fc1ccc(-c2nnc(CSc3nnc4ccccn34)o2)cc1	-0.181
C=CCn1c(=NC(=O)C2CCCCC2)sc2cc(NC(C)=O)ccc21	-0.258
CN1c2ccccc2C(O)=C(C(=S)Nc2ccc(F)c(Cl)c2)S1(=O)=O	0.358

Structure (SMILES)	z-score
CC(C)CCNC(=O)C1CCCN1C(=O)NC1CCCCC1 (configuration not stated)	-0.0987
O=[N+]([O-])c1cccc(/C=N\N=C2c3ccccc3-c3ccccc32)c1O	-0.652
CC(=O)NCc1ccc(S(=O)(=O)N/N=C/c2ccccc2)cc1	-0.233
COc1ccc(CCN=CC2=C(O)CC(C)(C)CC2=O)cc1	0.179
CCC(C)C(NC(=O)C(N)CC(C)C)C(=O)NC(CCC(=O)OCc1ccccc1)C(N)=O (stereo not drawn) (H-Leu-Ile-Glu(OBn)-NH2; configuration not given here)	-0.167
CCOc1ccccc1C(=O)NCC(=O)OCc1c(C)noc1C	-0.312
CC1CCN(c2ccc(/C=N/n3nnnc3N)cc2[N+](=O)[O-])CC1	active: 3.58
CCN(CC)C(=S)Nc1ccc(OC)cc1	-0.164
CCOc1cc(NC(=S)NCCCN2CCOCC2)c(OCC)cc1NC(=O)CC(C)C	-1.52
O=C(COC(=O)/C=C/c1ccccc1[N+](=O)[O-])Nc1ccc(OC(F)F)cc1	-0.243
N#Cc1cnn2c1nc(N1CCCCC1)c1ccccc12	-0.394
COCc1cc(CN2CCCC2)c(O)c2ncccc12	0.156
Cc1ccccc1N1C(=O)CC1(C#N)c1ccc(OCc2ccccc2)cc1 (configuration not stated)	-0.029
O=C(Nc1cc(S(=O)(=O)N2CCCCC2)ccc1O)c1ccccc1NS(=O)(=O)c1ccc(F)cc1	-0.421
Cc1cccc(NC(=O)CSc2nc(COc3ccccc3)nc3ccccc23)c1C	0.379
CC(C(=O)Nc1ccc2c(c1)OCO2)N(c1ccc(Cl)cc1)S(C)(=O)=O (configuration not stated)	-0.536
CC1CCCC(NC(=O)NC(=O)CCl)C1C (configuration not stated)	0.0914
Cn1c(CSCc2ccccc2)nnc1SCC(=O)Nc1nccs1	-0.275
O=C(COC(=O)/C=C/c1ccccc1Cl)NCCc1ccc(Cl)cc1Cl	-0.117
CCOC(=O)NC(=O)CSc1nnnn1-c1ccccc1	-0.0623
CCOC(=O)N1CCN(c2nc(-c3cccs3)cc(C(F)(F)F)n2)CC1	-0.08
C=CCn1c(=NC(=O)c2ccc(S(=O)(=O)N3CCc4ccccc4C3)cc2)sc2cc(S(N)(=O)=O)ccc21	0.307

Structure (SMILES)	z-score
CCS(=O)(=O)N1CCCC(C(=O)N2CCc3ccccc3C2)C1 (configuration not stated)	-0.0213
Cc1cc(N2C(=O)C3C4C=CC(C4)C3C2=O)ccc1NC(=O)c1cccs1 (configuration not stated)	0.398
CCN(C(=O)CSc1nnc(Cc2ccccc2F)n1N)C1CCS(=O)(=O)C1 (configuration not stated)	-0.217
COc1cc(/C=N/NC(=O)c2cccnc2)ccc1OS(=O)(=O)c1ccc(F)cc1	-0.598
O=C(Nc1ccncc1)c1ccc2c(c1)C(=O)N(C1CCCCC1)C2=O	active: 6.89
CCOC(=O)c1ccc2nc(C(F)(F)F)[nH]c(=O)c2c1	0.265
C=C(C)CSc1nc(N)c2c(C)c(C)sc2n1	0.0471
O=C1NC(=O)C2C3c4ccccc4C(c4ccccc43)C12 (configuration not stated)	-0.0586
CC1(C)CSC(=NCc2ccccc2)N1C(=O)c1cccc([N+](=O)[O-])c1	0.696
CCc1ccc(NC(=O)Cc2cn(C)c3ccccc23)cc1	-0.196
CCOC(=O)Nc1ccc(=O)n(Cc2c(Cl)cccc2Cl)c1	-0.0471
COC(=O)C1(S(=O)(=O)c2ccc(C)cc2)CCOCC1	-0.154
O=C1CCSc2ccc(Cl)cc2N1Cc1ccccc1	-0.321
COCC(=O)Nc1cccc(C(F)(F)F)c1	-0.112
Cc1ccc(N/N=C/c2c(O)cc(C)oc2=O)cc1	-0.193
CCC(C)(C)NC(=O)CN(Cc1cccs1)C(=O)CNS(=O)(=O)c1ccc(C)cc1	0.191
CCOC(=O)c1[nH]c(C)c(C(=O)NCc2ccccn2)c1C	0.0839
O=C(CN1CCSCC1)N/N=C/c1ccccc1F	-0.0282
Cc1oc(-c2ccc(Cl)cc2)nc1CN1CCC(C(=O)NCc2cccs2)CC1	1.65
COc1ccc(N)cc1C#N	0.208
O=C(COC(=O)C1(c2cccc(F)c2)CCCC1)NCc1ccc2c(c1)OCO2	-0.383
Cc1ccc(-c2nn3c(C)nnc3s2)cc1NC(=O)COc1ccc(Cl)cc1	-0.373

Structure (SMILES)	z-score
Cc1ccc(Nc2nc(N)nc(CSc3nncn3C)n2)cc1	1.01
COc1ccc(OC)c(S(=O)(=O)N2CCC(C(=O)Nc3cccc(C(F)(F)F)c3)CC2)c1	-1.13
CC(C)CC1NC(=O)N(CC(=O)N2CCN(S(=O)(=O)c3ccccc3)CC2)C1=O (configuration not stated)	-0.101
CN(C)CCCN(C(=O)c1cc2ccccc2oc1=O)c1nc2c(F)cccc2s1	0.0921
Cc1ccc(C2/C(=C(\O)c3cnn(-c4ccccc4)c3C)C(=O)C(=O)N2CCN(C)C)o1 (configuration not stated)	-0.417
C=CCNS(=O)(=O)c1ccc(OCC(=O)OCC)cc1	-0.178
COC(=O)CN1C(=O)C2(C(C#N)=C(N)Oc3c2c(C)nn3-c2ccccc2)c2ccccc21 (configuration not stated)	0.0568
COCCCNCC(=O)Nc1sc(C)c(C)c1C(=O)OC	0.0206
CN(C)C(=O)CSc1nnc(Cc2ccccc2)n1Cc1ccco1	-0.388
O=C(NCCCN1CCOCC1)c1cc2c(s1)CSC2	0.2
O=C(Nc1cccc(-c2cnc3ccccc3n2)c1)c1ccccc1	-0.0755
O=c1oc2ccc(Br)cc2cc1S(=O)(=O)c1ccc(F)cc1	-0.226
O=C1c2ccc(-c3nc4ccccc4o3)cc2C(=O)N1Cc1ccccc1	-0.0671
Cn1cnnc1SC/C(O)=C(\C#N)c1nc2ccccc2[nH]1	-0.102
COc1ccccc1CC(=O)N1CCCc2ccccc21	-0.0288
Cc1nn(-c2ccccc2)c(/N=C/c2ccc(O)cc2)c1-c1ccccc1	-0.0645
CN(C)CCN1C(=O)c2oc3ccccc3c(=O)c2C1c1ccc(F)cc1 (configuration not stated)	1.86
CCC(C)c1ccccc1NC(=O)CN1CCN(C/C=C/c2ccccc2)CC1 (configuration not stated)	0.0124
COC(=O)c1cc(OC)c(OC)c(OC)c1NC(=O)c1ccc(S(=O)(=O)N(C)C)cc1	0.739
